# In all, about 220,000 compounds went through this assay and about 5,700 (2.6%) were called active. This list was built around the results that the source calls inconclusive (neither active nor inactive); the mix of calls is not that of the screen. The call rests on the fitted dose curve; in most records, active means well fitted inhibition curve with a large enough effect; inconclusive means small, poorly fitted or top-dose-only effect; inactive means no such curve, though single readings can be large or run the other way. Potencies of inconclusive entries are doubtful fits and often do not repeat.
# Target: Lysine-specific demethylase 5B (Homo sapiens) (UniProt Q9UGL1)
# Assay: Primary screen for KDM5B Histone Demethylases FDH-coupled qHTS; further: nearly all actives have a fitted effect of over 70% in size; on activity change, negative = inhibition: 0% is about no effect
# Details: FDH-coupled NADH fluorescence (FDH is formaldehyde dehydrogenase); activity change, negative = inhibition: at 57.7 µM (top of the series) unless noted
# In short: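 KDM5BΔAP (200 nM final) in 50 mM HEPES pH 7.5, 0.01% Tween-20 was preincubated 10 min at RT with compound over a concentration range. Substrate mix (H3K4me3 12.5 µM, α-KG 25 µM, Fe²⁺, ascorbate, NAD⁺, FDH) was added, and NADH fluorescence change over 30 min gave dose-response curves.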
# Potency means the concentration at half of the fitted maximal effect; tags describe the fitted curve by direction and shape.
# Chain of UniProt Q9UGL1 (Q9UGL1 whole entry, looked up): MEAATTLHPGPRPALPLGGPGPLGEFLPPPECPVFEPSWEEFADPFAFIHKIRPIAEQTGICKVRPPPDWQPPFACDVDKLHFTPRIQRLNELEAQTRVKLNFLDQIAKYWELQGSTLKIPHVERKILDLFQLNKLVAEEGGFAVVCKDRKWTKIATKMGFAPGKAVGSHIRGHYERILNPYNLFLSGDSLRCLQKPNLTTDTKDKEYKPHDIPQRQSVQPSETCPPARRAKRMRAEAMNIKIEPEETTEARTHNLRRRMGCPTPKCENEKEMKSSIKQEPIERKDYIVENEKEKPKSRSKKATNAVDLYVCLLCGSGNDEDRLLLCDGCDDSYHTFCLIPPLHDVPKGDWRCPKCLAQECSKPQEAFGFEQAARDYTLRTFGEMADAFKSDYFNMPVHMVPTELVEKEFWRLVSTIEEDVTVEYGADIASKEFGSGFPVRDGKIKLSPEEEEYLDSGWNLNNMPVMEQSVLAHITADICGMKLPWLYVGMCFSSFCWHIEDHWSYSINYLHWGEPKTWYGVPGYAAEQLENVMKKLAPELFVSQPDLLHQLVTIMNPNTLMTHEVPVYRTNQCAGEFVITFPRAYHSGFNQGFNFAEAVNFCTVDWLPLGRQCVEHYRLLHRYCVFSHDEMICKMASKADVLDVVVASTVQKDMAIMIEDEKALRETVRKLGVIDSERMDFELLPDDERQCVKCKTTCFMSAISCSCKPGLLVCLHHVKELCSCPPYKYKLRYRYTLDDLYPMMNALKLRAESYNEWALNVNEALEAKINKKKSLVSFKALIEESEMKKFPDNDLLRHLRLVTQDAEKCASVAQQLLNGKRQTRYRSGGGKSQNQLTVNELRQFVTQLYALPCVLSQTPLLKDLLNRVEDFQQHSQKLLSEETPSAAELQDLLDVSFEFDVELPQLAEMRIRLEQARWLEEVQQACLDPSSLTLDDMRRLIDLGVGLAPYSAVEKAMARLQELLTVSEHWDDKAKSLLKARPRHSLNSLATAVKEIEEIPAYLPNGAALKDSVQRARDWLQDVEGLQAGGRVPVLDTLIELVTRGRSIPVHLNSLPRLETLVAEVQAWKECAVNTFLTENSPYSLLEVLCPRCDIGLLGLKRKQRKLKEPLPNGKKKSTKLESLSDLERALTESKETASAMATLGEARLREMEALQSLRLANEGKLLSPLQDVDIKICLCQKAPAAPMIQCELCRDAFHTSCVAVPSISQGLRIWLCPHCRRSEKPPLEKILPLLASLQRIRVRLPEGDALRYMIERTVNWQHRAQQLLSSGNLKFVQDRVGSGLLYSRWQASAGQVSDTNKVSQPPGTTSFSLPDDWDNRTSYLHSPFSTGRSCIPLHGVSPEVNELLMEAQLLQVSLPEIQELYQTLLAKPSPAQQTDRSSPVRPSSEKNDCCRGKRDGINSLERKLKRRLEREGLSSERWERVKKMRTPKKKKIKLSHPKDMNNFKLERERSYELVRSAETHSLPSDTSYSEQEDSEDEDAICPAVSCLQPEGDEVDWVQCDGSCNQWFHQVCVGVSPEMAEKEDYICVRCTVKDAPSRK
SMILES,Potency,"activity change, negative = inhibition"
O=C1CC(c2ccccc2)N(C(=O)C2CC2)CCCN(C(=O)c2ccc3cc[nH]c3c2)CCN1 (centres undefined),active: 28.2 µM,
COc1ccc(S(=O)(=O)Nc2ccc(Nc3cc(N(C)C)nc(C)n3)cc2)c(C)c1C,,inactive: 0.769%
COc1ccc(-c2ocnc2C(=O)Nc2cccc(OC)c2)cc1,"inconclusive: 39.8 µM [inhibitor, single point]",
COc1ccc(-c2cc(C(F)(F)F)nc(SCCC(=O)N3CCCC3)n2)cc1,,inactive: 14.7%
O=C(CCn1ccn2nc3c(c2c1=O)CCCC3)NCc1ccc(F)c(Cl)c1,,inactive: -17.6%
COc1ccc(CNc2nc3c(-c4ccccc4)nnn3c3ccccc23)cc1,"inconclusive: 15.8 µM [inhibitor, partial curve, poor fit]",
CC(Sc1ncc(C(F)(F)F)cc1Cl)C(=O)Nc1ccccc1F (centres undefined),,inactive: 8.33%
COc1cccc(-c2cc3c(=O)n(CCNC(=O)Cc4cccs4)ccn3n2)c1,"inconclusive: 20 µM [inhibitor, partial curve, poor fit]",
COc1ccc2[nH]c3c(c2c1)CCN(C)C31CCN(C(=O)c2ccccc2)CC1,"inconclusive: 31.6 µM [inhibitor, single point]",
CN(C)CCN(C(=O)c1ccc2c(c1)CCCC2)c1nc2cc3c(cc2s1)OCCO3,"inconclusive: 28.2 µM [inhibitor, partial curve, poor fit]",
COc1cccc(-c2ncc3c(n2)OCCN(c2ccccc2)C3=O)c1,active: 28.2 µM,
O=C(Nc1ccc(F)cc1)c1csc2c1CCCCC2,"inconclusive: 1.26 µM [inhibitor, partial curve, poor fit]",
CCc1ccccc1NC(=S)NCC1CCN(c2ccc(OC)cc2)C1 (centres undefined),"inconclusive: 5.01 µM [inhibitor, full curve, poor fit]",
COc1cccc(C(=O)NCC2CCCN(Cc3ccccn3)C2)c1OC (centres undefined),"inconclusive: 12.6 µM [inhibitor, partial curve, poor fit]",
COc1ccccc1CN1Cc2cc(NC(=O)Cc3cccs3)ccc2OC(C)C1=O (centres undefined),"inconclusive: 28.2 µM [inhibitor, partial curve]",
Cn1cc(CC(=O)N2CCCc3ncc(C(=O)N4CCCC[C@@H]4c4ccccc4)cc32)c2ccccc21,,inactive: -17.3%
O=Cc1ccc(-c2cccc(O)c2)cc1,active: 12.6 µM,
Cc1ccc(C(=O)NC(CN(C)C)c2ccccc2)cc1F (centres undefined),,inactive: -2.67%
O=[S+]([O-])(NCC1CN(Cc2cccc(Cl)c2)CC12CN(c1ccccc1)C2)c1ccccc1 (centres undefined),"inconclusive: 31.6 µM [inhibitor, partial curve, poor fit]",
Cc1noc(C)c1Cn1cc2c3c(cccc31)[C@H](CC(C)C)N[C@H](C(=O)N1CCOCC1)C2,"inconclusive: 28.2 µM [inhibitor, single point]",
COc1ccc(CC(=O)Nc2sc3c(c2C(=O)Nc2ccccc2)CCCCC3)cc1,"inconclusive: 17.8 µM [inhibitor, partial curve, poor fit]",
Cc1ccc(OCC(=O)Nc2ccc3oc(-c4ccccc4F)nc3c2)c(-n2cnnc2)c1,"inconclusive: 3.16 µM [inhibitor, full curve, poor fit]",

SMILES,Potency,"activity change, negative = inhibition"
Cc1nc2ccc(C(=O)OCC(=O)N3CCCCC3)cc2nc1C,,inactive: 10.6%
CCNC(=O)[C@@H]1C[C@H](NC(=O)CCc2ccccc2F)CN1C1CCCC1,"inconclusive: 20 µM [inhibitor, partial curve, poor fit]",
Cc1ccc(C(=O)N2CCC(Oc3ccc(C(=O)N(C)C)cn3)CC2)s1,,inactive: -6.72%
COc1ccccc1Nc1sc(C(=O)c2ccc(C)cc2C)c(N)c1S(=O)(=O)c1ccccc1,"inconclusive: 2.51 µM [inhibitor, partial curve, poor fit]",
Cn1nccc1C(=O)NCC1COc2ncncc2C(=O)N1Cc1ccccc1 (centres undefined),"inconclusive: 22.4 µM [inhibitor, single point]",
Cc1ccc(/C=C(/C#N)C(=O)c2ccsc2)cc1C,"inconclusive: 39.8 µM [inhibitor, single point]",
N#Cc1cccnc1N1CCN(C(=O)c2ccccc2)CC1,"inconclusive: 31.6 µM [inhibitor, partial curve, poor fit]",
OCc1ccc(CN2C[C@H](O)C[C@H]2c2nc(-c3ccccc3)no2)o1,"inconclusive: 25.1 µM [inhibitor, partial curve]",
CCNc1c(NC(=O)Nc2cc(Cl)ccc2C)c(=O)oc2ccccc12,,inactive: 17%
O=C(O)COCC(=O)N[C@H]1CO[C@H]2[C@@H]1OC[C@@H]2n1nnnc1-c1ccc2c(c1)OCO2,"inconclusive: 28.2 µM [inhibitor, partial curve, poor fit]",
O=C(c1cnn(-c2ccc(F)cc2)c1-n1cccc1)N1CCN(c2ccc(F)cc2)CC1,"inconclusive: 22.4 µM [inhibitor, single point]",
O=C(CC1CCCCC1)NC(Cc1ccccc1)C(=O)N1CCN(c2ccccn2)CC1 (centres undefined),active: 22.4 µM,
CCNc1nc(NCc2ccc(F)cc2)c2cnn(C)c2n1,"inconclusive: 39.8 µM [inhibitor, single point]",
Cc1ccc(C)c(-c2csc(Nc3ccc(S(N)(=O)=O)cc3)n2)c1,"inconclusive: 15.8 µM [inhibitor, partial curve, poor fit]",
CCOc1ccc(CC(=O)NCc2nnc3ccc(-c4ccc(C)cc4)nn23)cc1,"inconclusive: 14.1 µM [inhibitor, partial curve, poor fit]",
CCCN1CCCC12Cc1ccccc1CN(C(=O)CC)C2 (centres undefined),"inconclusive: 112 µM [inhibitor, partial curve, poor fit]",
CN(CCCNC(=O)c1cc2cc(F)ccc2[nH]1)Cc1ccccc1,"inconclusive: 28.2 µM [inhibitor, partial curve, poor fit]",
COc1ccc(NS(=O)(=O)c2ccc(N/N=C/c3ccc(C)s3)c([N+](=O)[O-])c2)cc1,,inactive: -5.53%
CC(=O)N(Cc1ccc(C(C)C)cc1)C1CC1,,inactive: 25.6%
CCCCC(=O)OC1=C(C(=O)c2ccccc2)N(CCC)S(=O)(=O)c2ccccc21,"inconclusive: 1.78 µM [inhibitor, partial curve, poor fit]",
O=Cc1cc(Cc2ccccc2Cl)cc(Br)c1O,,inactive: -42.7%
CC(NC(=O)CSc1n[nH]c(-c2ccccc2Cl)n1)c1nc2ccccc2[nH]1 (centres undefined),"inconclusive: 35.5 µM [inhibitor, single point]",

SMILES,Potency,"activity change, negative = inhibition"
CCOC(=O)C1=C(C)N=c2s/c(=C\c3ccc(OCC(=O)O)cc3)c(=O)n2C1c1ccccc1OC (centres undefined),"inconclusive: 10 µM [inhibitor, partial curve, poor fit]",
Cc1ccsc1CN1CCc2nc(Nc3ccccc3)ncc2C1,"inconclusive: 25.1 µM [inhibitor, partial curve, poor fit]",
O=C(CSc1nnc(NC(=O)c2cccc(F)c2)s1)NCc1ccco1,"inconclusive: 39.8 µM [inhibitor, single point]",
CCc1ccc2oc(C(=O)Nc3ccc(C)cc3)cc(=O)c2c1,,inactive: 17.1%
COc1ccccc1NC(=O)Cn1c(=O)n(Cc2ccccc2)c(=O)c2c1c1cc(C)ccc1n2C,"inconclusive: 17.8 µM [inhibitor, partial curve, poor fit]",
O=C(Cn1ccc2cc(S(=O)(=O)N3CCCCC3)ccc21)NCCc1ccccc1Cl,"inconclusive: 15.8 µM [inhibitor, partial curve, poor fit]",
CCn1cc(CN2CCCC(c3nc(-c4cnccn4)no3)CCNC(=O)CC2)cn1 (centres undefined),,inactive: 6.42%
CCc1noc(-c2ccn3c(CNC(=O)c4ccoc4)nnc3c2)n1,active: 28.2 µM,
CCCCNc1oc(/C=C/c2ccc(OCC)cc2)nc1C#N,"inconclusive: 1.78 µM [inhibitor, full curve, poor fit]",
CCOc1ccc(NC(=O)c2ccc3[nH]c(C)c(C)c3c2)cc1,"inconclusive: 1.78 µM [inhibitor, partial curve, poor fit]",
CCOc1ccccc1-n1nnc2c(=O)n(Cc3nc(-c4ccc(OC)cc4OC)no3)cnc21,,inactive: 20.5%
O=C(Cn1c(SCc2ccccc2F)nc2ccncc21)Nc1ccccc1C(F)(F)F,"inconclusive: 39.8 µM [inhibitor, single point]",
O=C(Cn1c(=O)c2cccn2c2cccnc21)NCc1cccc(F)c1,"inconclusive: 39.8 µM [inhibitor, single point]",
Cc1ccc(S(=O)(=O)Nc2cccc(-c3cn4cccc(C)c4n3)c2)c(C)c1,"inconclusive: 25.1 µM [inhibitor, partial curve, poor fit]",
CCOc1cc(C(=O)NCCc2sc(-c3ccc(F)cc3)nc2C)cc(OCC)c1OCC,"inconclusive: 1 µM [inhibitor, full curve, poor fit]",
CC(=O)N1CCC(C(NC(=O)c2ccccc2)C(=O)NCc2ccco2)CC1 (centres undefined),"inconclusive: 31.6 µM [inhibitor, partial curve, poor fit]",
COc1cc(C)c(NC2CCOC2=O)cc1OC (centres undefined),"inconclusive: 17.8 µM [inhibitor, single point]",
O=C1c2c(nc(CNc3ccc(OC(F)(F)F)cc3)n2Cc2ccccc2)NCCN1CCN1CCOCC1,"inconclusive: 22.4 µM [inhibitor, partial curve, poor fit]",
Cc1ccc(C2=NOC(=O)/C2=C\c2ccccc2)cc1,"inconclusive: 31.6 µM [inhibitor, partial curve, poor fit]",
COCCNC(=O)COC(=O)c1cc(-c2cccs2)nc2ccccc12,,inactive: 369%
